Our source for the binding signal values is paper PMC7819943, “Rice protein-binding microarrays: a tool to detect cis-acting elements near promoter regions in rice”.

The other results are listed elsewhere or left out.

The target of the assay is T1, OsWOX13 (Oryza sativa, UniProt Q5QMM3 1-267).
T1 sequence: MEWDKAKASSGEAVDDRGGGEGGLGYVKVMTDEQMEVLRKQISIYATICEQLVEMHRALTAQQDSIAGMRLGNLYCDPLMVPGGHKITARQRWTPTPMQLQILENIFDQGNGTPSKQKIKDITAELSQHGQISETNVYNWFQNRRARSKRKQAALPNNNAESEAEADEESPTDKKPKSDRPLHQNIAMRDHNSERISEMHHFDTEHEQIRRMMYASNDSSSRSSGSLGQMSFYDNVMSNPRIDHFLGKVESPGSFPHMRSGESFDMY
Briefly: protein-binding microarray (RPBM); PBS, 2% BSA, 51.3 ng/ul salmon testes DNA, 50 uM zinc acetate, 200 nM TF, 25 C, 1 h; high values mean tight binding. Conditions: protein: recombinant; tags: N-terminal polyhistidine and DsRed monomer fusion (pET32a); label: CyDye5-dUTP incorporated in the synthesized complementary strand; 3' TTTTT single-stranded linker to array surface; dsDNA, one strand shown. Put shortly: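 The binding signal is fluorescence intensity per array feature (arbitrary units). Readings came from an Axon 4000B scanner after a washed, 2% BSA-blocked, double-stranded custom Agilent array had been incubated for 1 h at 25 °C with 200 nM protein and 50 µM zinc acetate. The protein was a Ni–NTA-purified transcription factor fused N-terminally to polyhistidine and DsRed, expressed in E. coli BL21-CodonPlus.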
For “AAAATAATTTTGGATCATCTACATGGGTGTTAATATTTGTCGGAGTCACCTAGTGCAG”, the binding signal was 9750 fluorescence intensity (a.u.). As for “TCTGATATAATTGGGCCTGGATGGAATGTATTTATGATTGCGGAGTCACCTAGTGCAG”, the figure is 34500 fluorescence intensity (a.u.); as for “CTGCATACTTCTTGATTGGGATCCCTATTAGCTATAGCAACGGAGTCACCTAGTGCAG”, 22000 fluorescence intensity (a.u.). Under “CACATTATGCTAATTTGGTAATTTTGCTGATGCATTCTAACGGAGTCACCTAGTGCAG” stands 7710 fluorescence intensity (a.u.); under “TCCCAAGTGCCAACTAGTGATTGATGAGTGAGGAGGAAGACGGAGTCACCTAGTGCAG”, 9500 fluorescence intensity (a.u.). On to “CTGATTAAGATTGGTACTTGCTCCGATAGAGAACTCTACGCGGAGTCACCTAGTGCAG”, for which the binding signal is 30800 fluorescence intensity (a.u.). For “GCTGTAAATTTTGCTGTCACCATAAAGTCCAACCGAATAACGGAGTCACCTAGTGCAG”, the binding signal is 7320 fluorescence intensity (a.u.). Consider “AATCAACCAATCACACCAAAGCGCAAGGAGTTCCCATCGGCGGAGTCACCTAGTGCAG”, for which the binding signal is 8500 fluorescence intensity (a.u.).

Regarding “AATGCCCAATTAACTAAGATCATGGGCGTTGATAATGATGCGGAGTCACCTAGTGCAG”, the binding signal is 4800 fluorescence intensity (a.u.). In the case of “AATAATAATTAATTATAGTAATTAATCATTAATTTTGTACCGGAGTCACCTAGTGCAG”, the binding signal was 64100 fluorescence intensity (a.u.). Under “ATTAATGCAGTAATTTTGTTAAGTACATCCCTTCGTCTCTCGGAGTCACCTAGTGCAG” stands 7280 fluorescence intensity (a.u.); under “TTGATTATTCATTGCATTGGTTATAAGTCTCAACGGAATTCGGAGTCACCTAGTGCAG”, 6500 fluorescence intensity (a.u.). As for “ATATTGTAATTATCAAAATTTCTCCTCTTTCTGTCTCCCACGGAGTCACCTAGTGCAG”, the figure is 24400 fluorescence intensity (a.u.); as for “TCTGATGAACACATTGAGAAAGCAGATGAAGTTGCAGTGTCGGAGTCACCTAGTGCAG”, 5120 fluorescence intensity (a.u.); as for “AGATGACTGAAATGGGAGTGAAACCAGATGCACGTGGGTACGGAGTCACCTAGTGCAG”, 10500 fluorescence intensity (a.u.). In the case of “TTGAATTGGGATTAAACACATCGCTGTCCTTTCAACTCGGCGGAGTCACCTAGTGCAG”, the binding signal is 8340 fluorescence intensity (a.u.). As for “GGACATCATGATTAACATGTTATGAGGGATCACTATACTTCGGAGTCACCTAGTGCAG”, the figure is 6480 fluorescence intensity (a.u.); as for “GGAGCAATTAGGATTAAAAGATATGTCTCGTAAATTAGTCCGGAGTCACCTAGTGCAG”, 6420 fluorescence intensity (a.u.).

Take “ATAGGACCTGATTGAGGGAGTATAAGATTCTGAGAATCAGCGGAGTCACCTAGTGCAG”: the binding signal was 16300 fluorescence intensity (a.u.). “ATGAGTCGTGATTTGTTATACTCTAGTACCGAATAGGAGTCGGAGTCACCTAGTGCAG”: the binding signal is 10200 fluorescence intensity (a.u.).

In the case of “AAGATTACCCTAATTTGACAAGTTCATCCCATAAAACATTCGGAGTCACCTAGTGCAG”, the binding signal was 9140 fluorescence intensity (a.u.). Turning to “GTTCCTCTGATTGGGGAGGCTGGGGCACTGAAAAGGCGAACGGAGTCACCTAGTGCAG”, the binding signal is 30700 fluorescence intensity (a.u.). Under “GTTTATAGACAGATGATGATACTGTATATTCTCAAGGGCGCGGAGTCACCTAGTGCAG” stands 16300 fluorescence intensity (a.u.). Under “AATTCAATTACTATGGTTTCCAAGTAATACTGGCCCAGCACGGAGTCACCTAGTGCAG” stands 14500 fluorescence intensity (a.u.). On to “TGTAAATTTTGTTCTGCAAATGAATCGGGTCATGTCTTTCCGGAGTCACCTAGTGCAG”, for which the binding signal was 5440 fluorescence intensity (a.u.).

Take “TGCTTTGACAATGTAATTTATCCCTTTCTTCTTGCATAGACGGAGTCACCTAGTGCAG”: the binding signal was 5360 fluorescence intensity (a.u.). As for “ACGAACATTAATTATTCTATCATCATATGCATATGTATGTCGGAGTCACCTAGTGCAG”, the figure is 23600 fluorescence intensity (a.u.). On to “ACACTATTAATTGTTTTATTAGGTTTCAGACGTTATTTTGCGGAGTCACCTAGTGCAG”, for which the binding signal is 19100 fluorescence intensity (a.u.). Consider “TAATTAATTAATTAACTAATGAGAAATTAATGGAGGACAACGGAGTCACCTAGTGCAG”, for which the binding signal is 49000 fluorescence intensity (a.u.).

Take “TGTAATAATTAAATCTTAATTAATCATATGTTAACGTCATCGGAGTCACCTAGTGCAG”: the binding signal is 44200 fluorescence intensity (a.u.). With “GATAACAAAACGGAAGATTGGTAGGAGTAATAATAAAATGCGGAGTCACCTAGTGCAG”, the binding signal was 7550 fluorescence intensity (a.u.). Under “TGTGCTAATTGTATACGGAGTAATCCCTCCGATCTGATAACGGAGTCACCTAGTGCAG” stands 10300 fluorescence intensity (a.u.). As for “AAATAAATTTGATCCATTCCATAATAATAAATCTACACATCGGAGTCACCTAGTGCAG”, the figure is 9800 fluorescence intensity (a.u.); as for “TATTAGTTAATTGGTTCACTGACACTATACTAGTAATATTCGGAGTCACCTAGTGCAG”, 22500 fluorescence intensity (a.u.).

On to “ACATCACCAATTATTATAAAGGTTTATTTGGGTCAACGGACGGAGTCACCTAGTGCAG”, for which the binding signal was 3660 fluorescence intensity (a.u.). For “AACATAAATGACAAATTCAAATTGTAAATATTGCACTATTCGGAGTCACCTAGTGCAG”, the binding signal was 14500 fluorescence intensity (a.u.). Under “ACAAATTAAGATTGATAGAAAATGATGTGATTGATTAAGCCGGAGTCACCTAGTGCAG” stands 42500 fluorescence intensity (a.u.); under “TGTTACTAATTTATTTGGAGGCTTCATGGTTGACCTATTGCGGAGTCACCTAGTGCAG”, 3440 fluorescence intensity (a.u.); under “TATTAATTACAGATTGACAAAACACAAGATTTGCCTGTATCGGAGTCACCTAGTGCAG”, 61800 fluorescence intensity (a.u.). As for “CCACCGGGAGCCAATCACGCGCGGCCGCGTGTACACACCCCGGAGTCACCTAGTGCAG”, the figure is 5930 fluorescence intensity (a.u.).

Consider “ACCCATAATCATGTAATATTTTACATGCACCTTAAGCACACGGAGTCACCTAGTGCAG”, for which the binding signal was 6080 fluorescence intensity (a.u.). As for “TGAGAACATGATTAATTTGCAAGAGGGAAATACAGTACATCGGAGTCACCTAGTGCAG”, the figure is 8520 fluorescence intensity (a.u.).
